# Data published in publication PMC12040169 (PLOS Biology, 2025).
# The other results are listed elsewhere or left out.
# System: T1, C. trachomatis L2/434/Bu expressing GFP (CTL2-GFP)
# T1 construct: L2/434/Bu GFP intracellular growth in HeLa cells
# Parameters: species or system HeLa; C. trachomatis total inclusion area by high-content imaging, normalised to DMSO
# Settings: total inclusion area; 28.5 h, 10 µM; inhibitor
# Procedure, shortened: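 Imaging read-out: GFP inclusions and Hoechst nuclei captured by high-content imaging after fixation. Inclusion area/number = chlamydial growth; nuclei count = host cell viability. MIC calculated per earlier method.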
row,Compound,% of control remaining
1,CCCC(=O)c1ccc(S(=O)(=O)N2CCCN(Cc3c[nH]nc3-c3ccc(F)cc3)CC2)cc1 [CBK062911],89.8601
2,O=C(NCc1ccc2c(c1)OCO2)C1(c2ccccc2)CCCC1 [CBK149530],102.731
3,COc1cccc2c3c([nH]c12)C1(CCCN(CCc2ccc(F)cc2)C1)NCC3 (stereo not drawn) [CBK039251],106.866
4,Cc1ccc(C(CC(=O)O)NC(=O)c2ccc(C)c(S(=O)(=O)N3CCCCC3)c2)cc1 (stereo not drawn) [CBK297095],106.037
5,CN1C2CCC1CC(OC(=O)CCN1CCCC1)C2 (stereo not drawn) [CBK261466],111.966
6,CN(CCCN1CCCCC1)C(=O)C1Cc2cc(Cl)ccc2O1 (stereo not drawn) [CBK282162],92.3311
7,O=C(NCCN1CCOCC1)c1cccc(S(=O)(=O)N2CCCCCC2)c1 [CBK266668],119.079
8,Cc1cccn2c(CN(C)C(C)C(N)=O)c(C(=O)N3CCOCC3)nc12 (stereo not drawn) [CBK306592],69.7142
9,COc1ccc(C(=O)Nn2c(SCC(=O)c3ccc(F)cc3)nc3ccccc3c2=O)cc1 [CBK266688],79.3204
10,OCc1ccccc1CN1CCOCC1 [CBK264388C],113.005
11,O=[N+]([O-])c1cc([N+](=O)[O-])c(Nc2ccncc2)c([N+](=O)[O-])c1Nc1ccncc1 [CBK278276],88.6969
12,O=C(C1CCCO1)N1CCCCCC1c1cc(-c2cccs2)on1 (stereo not drawn) [CBK284340],84.9094
13,CCCCNCCn1cnc2c(N)ncnc21 [CBK057447],89.2064
14,O=C1c2ccccc2C(=O)N1CCCN1CCN(CCCN2C(=O)c3ccccc3C2=O)CC1 [CBK260963],94.1271
15,O=C(O)c1ccc(/C=N/N2CCN(Cc3ccccc3)CC2)cc1 [CBK265344],76.6819
16,Clc1cccc(-c2cncc(NCC3CCOCC3)n2)c1 [CBK037237],133.855
17,CC(Oc1ccc(Cl)cc1Cl)C(=O)Nc1ccc(OCC(=O)O)cc1 (stereo not drawn) [CBK266542],123.192
18,FC(F)(F)c1cccnc1OCCCc1ccncc1 [CBK115782],87.3713
19,CC(=O)Nc1cccc(-n2nnnc2SC2CCCC2)c1 [CBK305996],18.6005
20,O=S(=O)(N1CCCCCC1)N1CCN(S(=O)(=O)N2CCCCC2)CC1 [CBK269001],89.7976
21,CCC1c2ccsc2CCN1CC(O)COCc1ccco1 (stereo not drawn) [CBK303992],83.6304
22,CN(c1ccccc1)S(=O)(=O)c1cccc(NC(=O)Cc2csc(-c3ccco3)n2)c1 [CBK297792],106.941
23,Cc1cccc(-c2n[nH]c(=S)n2CCC(=O)Nc2ccc(N3CCCC3=O)c(C)c2)c1 [CBK296733],112.031
24,CC(=O)Nc1nc(OCCOc2ccccc2)cnc1-c1cnn(C)c1 [CBK145425],95.4755
25,CN1C(=O)COc2ccccc2C/C=C/C[C@H]2CNCC[C@H]21 [CBK292076],67.885
26,CCSc1ncc(Cl)c(C(=O)N(Cc2cccc(Br)c2)C2CCS(=O)(=O)C2)n1 (stereo not drawn) [CBK268969],91.4779

row,Compound,% of control remaining
1,CC(C)CCCC(=O)n1c(=O)n(CCc2c[nH]c3ccccc23)c2ccccc21 [CBK106513],86.6272
2,Cc1nn(C)c(N2CCNCC2)c1NC(=O)c1cccs1 [CBK050303T],49.0255
3,COCc1cccc(-c2ncc(OCC3COc4ccccc4O3)nc2N)c1 (stereo not drawn) [CBK145113],73.1381
4,Cc1ccc(S(=O)(=O)NC(C)(C)CSc2nncn2C)cc1 [CBK266366],112.274
5,Cc1ccnc2nc(C(=O)OC(C)C(=O)NC3CC3)nn12 (stereo not drawn) [CBK304998],107.292
6,c1ccc(OCc2nc3c4c(-c5ccccc5)c(-c5ccccc5)oc4ncn3n2)cc1 [CBK262939],68.6763
7,Cc1cc(C)cc(N(CC(=O)O)S(C)(=O)=O)c1 [CBK263775],85.1807
8,Cc1nn(Cc2ccccc2)c(C)c1C(=O)N(C)C [CBK015942],40.3202
9,Cc1c(S(=O)(=O)NCc2ccc(C(F)(F)F)c(F)c2)cnn1-c1ccccc1 [CBK062115],120.454
10,O=C(COc1ccccc1)NC(=S)Nc1cccc(-c2nc3ccccc3s2)c1 [CBK264360],113.434
11,CN1[C@@H](CCC(=O)N2CCOCC2)CNC(=O)[C@@H]2[C@H]1CCN2C1CCCCC1 [CBK289032],94.5613
12,Cc1cc(C)nc(N/C(=N/C(=O)Cc2ccccc2)N2CCC(C(N)=O)CC2)n1 [CBK263889],96.5395
13,Cc1ccc(CNC(=O)OCCN2CCN(C)CC2)n1C [CBK200287],93.8554
14,CC(C)(C)c1ccc(-c2cnc(N)c3ncccc23)cc1 [CBK067589],96.1862
15,COc1ccc(-c2ccccc2NC(=O)c2ccc(Cn3cnnn3)cc2)cc1 [CBK285866],103.74
16,Cc1ccc2sc(NC(=O)c3ccc(Cl)s3)nc2c1C [CBK291144],102.332
17,COc1ccc(/C=N/Nc2nc(OC)nc(N3CCOCC3)n2)cc1 [CBK025751],103.262
18,NC(=O)c1cc2c(OCCCN3CCN(C(c4ccccc4)c4ccccc4)CC3)cccc2[nH]1 [CBK016544],134.319
19,Oc1nc2ccc(Oc3ccc4nc(O)c(O)nc4c3)cc2nc1O [CBK293978],114.937
20,CN(C)Cc1nc2c([nH]1)c(=O)n(C)c(=O)n2C [CBK140662],48.0359
21,Cc1ccc(SCC(=O)Nc2cc([N+](=O)[O-])ccc2O)cc1 [CBK268655],67.0626
22,CS(=O)(=O)Nc1ncc(-c2ccco2)cc1C(=O)NCc1nc2ccccc2[nH]1 [CBK076468],73.4736
23,Cc1cc2c(s1)c1cnn(CC(=O)NC(C)(C)C)c(=O)c1n2C [CBK284158],65.7485
24,COc1ccc([C@@]23CCCN(C(=O)Nc4ccc(SC(F)(F)F)cc4)C[C@@H]2N(C)CC3)cc1OC [CBK056681T],77.3626
25,COC(=O)c1ccsc1NS(=O)(=O)c1cc(Br)ccc1OC [CBK039065],65.2241
26,CC(C)NC(=O)[C@H]1CN2CCC1C[C@@H]2Cn1cc(-c2cccc(O)c2)nn1 (stereo partly drawn) [CBK288731],103.807

row,Compound,% of control remaining
1,CCCCCOc1ccc(C2NC(=O)NC2=O)cc1 (stereo not drawn) [CBK287865],113.441
2,CN(C)S(=O)(=O)NCc1ccc2c(c1)OCO2 [CBK264364],113.59
3,FC(F)(F)c1cccc(Sc2ccc(Cl)c(Cl)c2)n1 [CBK089608],104.884
4,CCN1CCN(c2ccc(NC(=O)c3cccc(OCc4ccccc4)c3)cc2)CC1 [CBK266471],127.712
5,CCC(O)CNC(=O)c1coc(COc2ccc3sc(C)nc3c2)n1 (stereo not drawn) [CBK307700],68.6965
6,Cc1cn2c(=O)c3ncn([C@H]4C[C@@H](O)[C@@H](CO)O4)c3nc2[nH]1 [CBK201320],104.775
7,Cc1ccccc1OC(C)C(=O)Nc1nnc[nH]1 (stereo not drawn) [CBK268605],86.6951
8,COc1c(C)[nH]cc(CN(C)CCC(=O)Nc2cccc(F)c2)c1=O [CBK304201],57.7727
9,O=C(O)/C=C/c1cccc(-c2cncc(N3CCN(Cc4ccccn4)CC3)n2)c1 [CBK066085],112.93
10,CN(C)CCNC(=O)c1cccc(-c2cnc(N)c(N3CCN(C)CC3)n2)c1 [CBK063393],72.3398
11,O=C(NCC(c1ccccc1)c1ccccc1)N1CCN(c2ccc(F)cc2)CC1 [CBK156415],89.9484
12,COc1ccc(N2C(=O)CC(Nc3ccc(Cc4nc5ccccc5[nH]4)cc3)C2=O)cc1 (stereo not drawn) [CBK266480],107.145
13,CC1c2ccsc2CCN1C(=O)COc1cccc(Br)c1 (stereo not drawn) [CBK305434],73.1901
14,CC(=O)Nc1ccc(CNC(=O)CN2CCCC(c3ncc[nH]3)C2)cc1 (stereo not drawn) [CBK307718],85.9676
15,CC1CCN(Cc2ccc(-c3nnn(CC(=O)NCc4ccc(C(F)(F)F)cn4)n3)cc2)CC1 [CBK149722T],90.7467
16,CN1CCN(/N=C/c2c(C(F)(F)F)[nH]n(-c3nc4ccccc4s3)c2=O)CC1 [CBK263163],103.782
17,COc1cccc2ncn(Cc3n[nH]c(C)n3)c(=O)c12 [CBK306938],74.768
18,NC(=O)C1(Cc2cccc(-c3cccs3)c2)CCN(C(=O)COc2ccccc2)CC1 [CBK285741],84.3994
19,CC1(C)CC(=O)C2=C(C1)Nc1ccccc1N(C(=S)NCc1ccco1)C2c1cccnc1 (stereo not drawn) [CBK267342],137.434
20,CCOCCCn1c(SCC(=O)NC(Cc2ccccc2)C(=O)O)nc2ccccc2c1=O (stereo not drawn) [CBK297132],91.918
21,COC(=O)c1ccccc1NC(=O)CSc1nnc(-c2ccccc2)[nH]1 [CBK266338],120.303
22,COc1ccc(C(=O)C2=C(O)C(=O)N(CCN3CCNCC3)C2c2ccc(Cl)c(Cl)c2)cc1 (stereo not drawn) [CBK264616],117.322
23,Cc1nnc2sc(-c3ccccc3NC(=S)NC(=O)c3cc4ccccc4o3)nn12 [CBK268845],108.982
24,CC(Cc1nc(C2(Cl)CC2)cs1)n1cc(Cl)cn1 (stereo not drawn) [CBK304715],43.8524
25,COc1cc(NC(=O)Cc2cccc3ccccc23)c(C(=O)O)cc1OC [CBK268206],86.1956
26,CCNC(=O)N1CC2(CCN(Cc3cc(OC)c(OC)c(OC)c3)CC2)c2ccccc21 [CBK126689],58.9751
